Laboratory results reported in the supplement of paper PMC3334620.
Over roughly 33,000 sequences, “E-score (-0.5 to 0.5)” has its median near -0.012; the highest 2% begin near 0.27. The list shows a part of the results.

molecular target: T1, Vhr1 (UniProt P40522); assay: PBM E-score (8-mer binding enrichment) (E-score (-0.5 to 0.5)); higher = stronger / more preferred TF binding; most listed sequences are background and not binding sites; conditions: protein concentration: 200 nM; construct: GST-full length
T1 sequence: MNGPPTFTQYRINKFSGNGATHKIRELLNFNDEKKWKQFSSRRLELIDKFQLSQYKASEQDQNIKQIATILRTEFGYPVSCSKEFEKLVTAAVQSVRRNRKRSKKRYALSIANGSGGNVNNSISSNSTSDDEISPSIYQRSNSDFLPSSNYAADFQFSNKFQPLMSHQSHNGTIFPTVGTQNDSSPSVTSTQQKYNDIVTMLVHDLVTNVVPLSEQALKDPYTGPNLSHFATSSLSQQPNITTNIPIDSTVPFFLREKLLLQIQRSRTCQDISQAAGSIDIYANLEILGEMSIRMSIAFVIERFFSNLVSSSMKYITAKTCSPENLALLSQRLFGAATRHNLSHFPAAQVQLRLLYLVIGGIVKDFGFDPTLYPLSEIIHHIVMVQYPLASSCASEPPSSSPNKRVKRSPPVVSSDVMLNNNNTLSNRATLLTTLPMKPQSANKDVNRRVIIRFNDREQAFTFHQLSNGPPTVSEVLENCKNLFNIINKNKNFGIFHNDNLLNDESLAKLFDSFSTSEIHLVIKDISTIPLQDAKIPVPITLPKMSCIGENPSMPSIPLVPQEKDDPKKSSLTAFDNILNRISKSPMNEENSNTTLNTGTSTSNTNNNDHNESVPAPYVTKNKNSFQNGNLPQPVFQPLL
Method: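 Universal 'all 10-mer' protein binding microarrays (Agilent AMADID 015681) probed with GST-tagged S. cerevisiae TFs (full-length or DBD) made by in vitro transcription/translation (PURExpress), about 100-200 nM. Bound TF was detected with fluorescent anti-GST. Each ungapped 8-mer (which stands for itself and its reverse complement) is scored by the PBM enrichment score (E-score), a modified Wilcoxon-Mann-Whitney statistic from -0.5 to +0.5, computed with the Universal PBM Analysis Suite. Scale: above 0.35 generally sequence-specific binding.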

Row | Sequence | PBM E-score
1 | ATTTACGG | 0.0365
2 | GATACAAC | 0.091
3 | CTCTGGTA | 0.0272
4 | AGCCGTGG | -0.222
5 | ACAAGGTG | 0.0576
6 | GACGAGGA | 0.00776
7 | TATCGCGA | 0.198
8 | ACCAACTG | 0.14
9 | AGATCGTC | -0.193
10 | CATAGTGG | 0.115
11 | AGAAGCAG | -0.151
12 | GGCGATAA | -0.0228
13 | CACATCCC | 0.223
14 | ATGATGAA | 0.175
15 | AGGCCGAA | -0.0649
16 | GACATTAC | 0.112
17 | TGCTGTAA | -0.117
18 | CATGGCAA | -0.031
19 | AACCTGAA | -0.0777
20 | GCCGAACA | 0.0562
21 | TTCAACAA | 0.0679
22 | CCAACTAG | -0.00513
23 | ACACAGGG | 0.127
24 | GGGCTTGA | -0.125
25 | CCAATTGC | -0.196

Row | Sequence | PBM E-score
26 | CCCGAATA | 0.0112
27 | AAGTAGAC | -0.0556
28 | AAATTATT | -0.0495
29 | AAAGTTCA | -0.0836
30 | ACTTTACG | -0.0234
31 | TGCCAAAA | -0.139
32 | CGTGGGAA | -0.189
33 | GTATTAAC | 0.142
34 | GATAGAGC | -0.29
35 | GGGGATCA | -0.283
36 | CTGTCTTC | -0.105
37 | CAAAGCAC | -0.025
38 | ACTTCGGG | -0.124
39 | AAAGTCCC | -0.301
40 | ACCTTGCT | -0.137
41 | ATATGGAT | 0.244
42 | TAGCGGAA | -0.193
43 | ATCCACTG | 0.0196
44 | ACAGCTAG | 0.0559
45 | CGGCACGC | -0.0534
46 | ATGTCGCA | 0.0604
47 | CAGAGGGA | -0.188
48 | CGGAACAC | 0.185
49 | AGTCGTTG | 0.0341
50 | ATACGCGC | 0.0339

Row | Sequence | PBM E-score
51 | AAGAAGAA | -0.0589
52 | GCGATATA | 0.108
53 | CAGGGGGG | -0.162
54 | AGCTATTG | -0.109
55 | CCTACCGC | 0.0831
56 | AGGTGTTC | -0.0649
57 | ACTTATCA | 0.0454
58 | ATAAGGGG | -0.0708
59 | TAGACACA | -0.13
60 | AGTTGTCA | 0.0769
61 | TCTATCCA | -0.169
62 | ACTTCCTG | -0.0591
63 | GAATCAAA | -0.0259
64 | ATACTTAC | 0.143
65 | CGATGCAG | 0.118
66 | TAATGCCA | 0.113
67 | GCCTCAAC | -0.121
68 | CTCAACTA | 0.106
69 | AGGGTCAG | -0.161
70 | AGACAGAC | 0.16
71 | ATATAGAA | 0.11
72 | GTAGACTA | -0.175
73 | GAACGAAC | -0.0159
74 | AAAGTCCA | -0.187
75 | AGCCTGGA | 0.0881

Row | Sequence | PBM E-score
76 | AATCCCTA | -0.0892
77 | AGGGCTAG | -0.236
78 | ACTATCCT | 0.0957
79 | ACCCCGAC | 0.181
80 | CGGGCTAA | -0.119
81 | AGTCGAGG | -0.0728
82 | TAATAGAA | -0.0679
83 | ACTTACCA | -0.103
84 | CCTTGGGA | -0.175
85 | ATGACTGG | 0.298
86 | CCGTCCCG | -0.0823
87 | GAGCTATC | -0.143
88 | CCTTATGC | 0.0362
89 | GCGGCGGA | 0.13
90 | TGCATTAA | 0.0107
91 | TCTTACCA | 0.028
92 | CAAGTAGA | -0.0412
93 | AGGGACGA | -0.0429
94 | CCGGCAAC | 0.00493
95 | CTAGGAAA | -0.262
96 | CGTCACCC | -0.047
97 | CATAGCGA | -0.0578
98 | GTCCCTGA | -0.0842
99 | AGGTGGGG | 0.0416
100 | CACAGTTC | 0.0452

Row | Sequence | PBM E-score
101 | CACTTTCG | -0.142
102 | AAAATGGC | -0.228
103 | GAGATGGC | -0.0254
104 | GTCCAGAA | -0.0907
105 | CAAGACCG | -0.221
106 | ACTGCCTC | -0.108
107 | CATGAGAC | 0.274
108 | CTCTGAAG | -0.13
109 | ATCATCCA | 0.262
110 | TGGCCTAA | -0.234
111 | AACCGTCT | -0.076
112 | TGCATCAA | 0.153
113 | ATATAAAG | -0.196
114 | GGCGCATA | -0.0171
115 | CCCACTAG | -0.232
116 | GTGAGCTA | 0.126
117 | CACATCGC | 0.259
118 | AAAACGTC | -0.273
119 | AAAGCCAC | -0.0731
120 | AGGCCCGC | 0.0192
121 | GTCAAAAC | 0.0706
122 | GATAGTAA | 0.0876
123 | TATGTACA | 0.0596
124 | AACCATTC | -0.0569
125 | CAATGCCA | -0.00204

Row | Sequence | PBM E-score
126 | CGTTCTTA | -0.12
127 | ACATCGCC | 0.153
128 | CGCCATAC | 0.0581
129 | CCGAAGTA | 0.0154
130 | AGTTTTAT | -0.14
131 | TAGAAGAA | -0.198
132 | AATCAACT | -0.00176
133 | CAAATAAC | 0.0847
134 | TGACTGCA | 0.266
135 | CTGGAGAC | 0.0265
136 | AAAGGACG | -0.16
137 | AAAAATTG | -0.136
138 | TGGCATAA | 0.209
139 | CGACATAG | -0.0719
140 | TCCTGCAA | -0.21
141 | CGTACGCA | -0.0167
142 | GGGGCGAC | 0.144
143 | GGTTTCGA | -0.06
144 | ATGGGGAG | -0.0565
145 | TATCTAAA | 0.119
146 | AGATTGTA | 0.0192
147 | AAAAAGCC | -0.0917
148 | GATCGCGA | 0.189
149 | CTGTACAA | -0.151
150 | TACGGAGA | 0.00353

Row | Sequence | PBM E-score
151 | TGACGAAA | -0.0902
152 | CCGGTAAG | -0.0459
153 | GCGCTCTA | -0.0208
154 | TAACGCGA | -0.0706
155 | AGTAATAG | 0.0982
156 | CGATGGCC | -0.165
157 | CTCGACTA | 0.163
158 | AGGGGCCA | -0.0724
159 | CGTAAGCC | -0.173
160 | GTAGGTGA | 0.0963
161 | TCAGATGA | 0.221
162 | ATCTGTAG | 0.0268
163 | TACACGGA | 0.0609
164 | GCCACAGC | 0.0405
165 | AACTCAAA | 0.108
166 | AAGCGACG | -0.172
167 | CAGGGCAC | 0.0483
168 | GCAGTACC | 0.0122
169 | GCACACAA | 0.0772
170 | AAGTGTCA | -0.0801
171 | GCTCGTAA | -0.0526
172 | GCCACTAA | -0.0709
173 | ACTCGGCA | 0.143
174 | ATGATACC | 0.124
175 | AACGCTGC | -0.255

Row | Sequence | PBM E-score
176 | CAAATGTG | 0.166
177 | AGGGAGAT | -0.115
178 | AAGTGAAC | -0.149
179 | ACAAAAGC | -0.131
180 | GTGCTCCA | -0.0978
181 | CCGTACCC | 0.178
182 | CGCCGCCA | 0.221
183 | AAAACCTA | -0.14
184 | GTTTAATA | -0.0225
185 | ACTGACTA | 0.295
186 | AAGCCGAA | 0.0141
187 | ACCTCTAT | -0.0423
188 | AATCCAAG | 0.086
189 | TCCGGACA | -0.0474
190 | TACCTATA | 0.0684
191 | AAGTAAAA | -0.118
192 | GCCGTAGC | -0.163
193 | CGTCAGAG | -0.103
194 | GTGTTACA | 0.102
195 | GACGACAA | 0.118
196 | AAACGCTA | -0.279
197 | AGGCGATA | -0.203
198 | ACTGTGCT | 0.0886
199 | ACCCGAGA | -0.0197
200 | AGACCCGG | 0.201

Row | Sequence | PBM E-score
201 | CGGTGAGA | 0.146
202 | CAATACAC | -0.0925
203 | CACTGGCG | 0.0434
204 | GGGCCTAC | -0.273
205 | ATGTCCCG | 0.0384
206 | GCACCACC | 0.0424
207 | CCTACAAA | -0.0055
208 | CGGAGACC | 0.155
209 | CTGACAGA | -0.145
210 | TATCAATA | 0.0758
211 | AACCACAC | 0.153
212 | ATTGGAAA | -0.327
213 | AGTAAAAT | -0.0518
214 | GCCTAACA | 0.026
215 | CAATGCAA | -0.09
216 | GTACCTTA | -0.0925
217 | AGCCGCCA | 0.00766
218 | TCACGGAA | 0.025
219 | AAGCATCC | -0.214
